Test results published in PubChem BioAssay AID2451 (National Center for Advancing Translational Sciences (NCATS), 2010).
Where “and” joins values, the source holds several entries; their conditions need not be identical. Equal values may be shown once. The whole screen tested about 290,000 compounds, of which about 2,100 (0.72%) were called active. Inconclusive results, whose numbers are uncertain, are shown with a selection of clear calls. The call rests on the fitted dose curve; in most records, active means well fitted inhibition curve with a large enough effect; inconclusive means small, poorly fitted or top-dose-only effect, or effect the other way; inactive means flat fitted curve, though single readings scatter. Potencies of inconclusive entries are doubtful fits and often do not repeat.

target: Fructose-bisphosphate aldolase (Giardia intestinalis (strain ATCC 50803 / WB clone C6)) (UniProt A8B2U2); test: qHTS Assay for Inhibitors of Fructose-1,6-bisphosphate Aldolase from Giardia Lamblia; conditions: purified Giardia FBPA; series mostly up to 59.6 µM; further: nearly all actives have a fitted effect of over 55% in size
Sequence of UniProt A8B2U2 (A8B2U2 whole entry, looked up): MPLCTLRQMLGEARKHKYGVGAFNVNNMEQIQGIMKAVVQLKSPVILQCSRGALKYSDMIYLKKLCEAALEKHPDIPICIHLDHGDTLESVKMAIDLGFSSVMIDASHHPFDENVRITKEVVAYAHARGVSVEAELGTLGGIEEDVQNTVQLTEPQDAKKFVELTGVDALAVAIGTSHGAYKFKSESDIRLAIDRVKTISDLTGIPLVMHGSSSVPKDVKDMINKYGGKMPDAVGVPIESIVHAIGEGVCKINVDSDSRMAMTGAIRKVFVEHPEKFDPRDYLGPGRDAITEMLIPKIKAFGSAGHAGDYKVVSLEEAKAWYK
Procedure, shortened: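 40 nM FBPA preincubated 10 min at RT with compound (up to 57.5 uM final), then substrate plus GAPDH/TPI/NAD/arsenate coupling and diaphorase/resazurin added. Fluorescence read after 20 min at RT, 525/598 nm.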
Potency means the concentration at half of the fitted maximal effect; tags describe the fitted curve by direction and shape.

For O=C(CSc1ccc(-c2ccccn2)nn1)N1CCCC1, which Potency is on record?
The Potency was inconclusive: 17.7 µM [inhibitor, single point].

With CS(=O)(=O)c1ccc2nc(NC(=O)c3ccc(Cl)nc3)sc2c1 as the compound, how does the Potency read?
Its Potency is inconclusive: 14.1 µM [inhibitor, partial curve].

How did the Potency turn out when Cc1csc(N2CCN(c3cc4nc(-c5ccncc5)[nH]c4cc3Cl)CC2)n1 was run?
Its Potency is inconclusive: 17.8 µM [inhibitor, partial curve].

How did the Potency turn out when COC(=O)c1ccccc1NC(=O)c1cc2sccc2n1C was run?
Its Potency is “inactive”.

For COc1ccc(Br)cc1CN1CCC(N2CCCC2)CC1, which Potency is on record?
The Potency was inconclusive: 15.8 µM [inhibitor, partial curve].

How did the Potency turn out when COc1ccc(CCn2c(NN=C(C)C)nc3c2c(=O)[nH]c(=O)n3C)cc1 was run?
The Potency was active: 2.81 µM.

Which Potency does the source give for CN(C)c1ccc(N2CN=C3SCC(=O)N3C2)cc1 here?
Its Potency is inconclusive: 4.46 µM [inhibitor, partial curve].

Which Potency does the source give for C[C@H](CCC(=O)O)[C@H]1CC[C@H]2[C@@H]3CC[C@@H]4C[C@H](O)CC[C@]4(C)[C@H]3CC[C@]12C here?
Its Potency is inconclusive: 15.8 µM [activator, single point].

With Oc1ccc(N2CCN(C(c3cccnc3)c3nnnn3Cc3ccccc3)CC2)cc1 (stereo not given) as the compound, how does the Potency read?
The Potency was inconclusive: 17.7 µM [inhibitor, partial curve].

For CCOC(=O)C1(CCOc2ccccc2)CCN(Cc2cc(OC)c(O)c(OC)c2)CC1, which Potency is on record?
Its Potency is inconclusive: 10 µM [inhibitor, partial curve].

With CCOc1cc(NS(=O)(=O)c2ccc(OC)cc2)c(OCC)cc1NC(=O)c1ccco1 as the compound, how does the Potency read?
Its Potency is inconclusive: 25.1 µM [inhibitor, single point].

How did the Potency turn out when O=C(NC(=S)Nc1cccnc1)c1ccccc1 was run?
Its Potency is active: 12.6 µM.

CCOC(=O)C1(CCOc2ccccc2)CCN(C(=O)c2ccc(-n3cccn3)cc2)CC1 was tested. Which Potency did it give?
The Potency was “inactive”.

With CCOc1cc2c(cc1OCC)-n1cccc1C(c1c(O)cccc1OC)NC2 (stereo not given) as the compound, how does the Potency read?
Its Potency is “inactive”.

Which Potency does the source give for CCOC(=O)C1=C(c2ccccc2)Nc2ncnn2C1c1cc(OC)cc(OC)c1OC (stereo not given) here?
Its Potency is “inactive”.

CC(C)C(C(=O)NCC1CCCO1)N(Cc1ccco1)C(=O)CNS(=O)(=O)c1ccc(F)cc1 (stereo not given) was tested. Which Potency did it give?
Its Potency is inconclusive: 44.6 µM [inhibitor, single point].

Which Potency does the source give for COc1cccc(Nc2nc(-c3sc(N)nc3C)cs2)c1 here?
The Potency was “inactive”.

Which Potency does the source give for CNC(=O)c1[nH]cnc1C(=O)NCC(=O)OC(C)(C)C here?
The Potency was inconclusive: 12.6 µM [inhibitor, partial curve].

COc1ccc(OC)c(/C=N/NC(=O)CC(=O)NCc2ccccc2)c1 was tested. Which Potency did it give?
Its Potency is inconclusive: 17.7 µM [inhibitor, partial curve].

With N#C/C(=C\c1ccc(OCc2ccc(Br)cc2)cc1)C(=O)Nc1cccc(C(=O)O)c1 as the compound, how does the Potency read?
Its Potency is “inactive”.

For O=C1c2ccccc2NC(c2cnc3ccccc3n2)N1O (stereo not given), which Potency is on record?
The Potency was inconclusive: 14.1 µM [inhibitor, partial curve].

Which Potency does the source give for COC(=O)CCCC1=CC2=CC(=O)C(C)(OC(=O)c3cccs3)C(=O)C2=CN1CC1CC1 (stereo not given) here?
Its Potency is inconclusive: 8.89 µM [inhibitor, partial curve] and inconclusive: 446 nM [inhibitor, partial curve].

For COc1ccc(N2CC(O)=C(c3nc4ccccc4s3)C2=N)c(OC)c1, which Potency is on record?
The Potency was inconclusive: 22.4 µM [inhibitor, single point].

With Cc1ccccc1NCc1ccccc1O as the compound, how does the Potency read?
Its Potency is inconclusive: 25.1 µM [inhibitor, single point].

How did the Potency turn out when O=C(Nc1ccc(Cl)c(Cl)c1)N1CCSC1c1ccco1 (stereo not given) was run?
Its Potency is inconclusive: 15.8 µM [inhibitor, partial curve, poor fit].

For CCOC(=O)c1ccc(N2C(=O)C=CC2=O)cc1, which Potency is on record?
The Potency was inconclusive: 22.3 µM [inhibitor, single point].

COc1ccc(CCC(=O)Nc2ccc(-c3noc(-c4ccc(OC)c(OC)c4)n3)cc2)cc1 was tested. Which Potency did it give?
The Potency was inconclusive: 31.5 µM [activator, single point].

For COc1ccc(S(=O)(=O)N2CCC(C(=O)NCC3CCCCC3)CC2)cc1, which Potency is on record?
The Potency was “inactive”.

COc1ccc(O)c(C(=O)CC(=O)c2ccccc2C)c1 was tested. Which Potency did it give?
Its Potency is “inactive”.

How did the Potency turn out when C=CCNC(=S)Nc1ccc2nsnc2c1 was run?
The Potency was inconclusive: 6.29 µM [inhibitor, partial curve].

Which Potency does the source give for CN(CCOc1ccc(F)cc1)Cc1ccccc1 here?
Its Potency is inconclusive: 14.1 µM [inhibitor, partial curve].

How did the Potency turn out when Cc1ccc(-n2c(C)n[nH]c2=S)cc1C was run?
Its Potency is inconclusive: 25.1 µM [inhibitor, partial curve].

How did the Potency turn out when CCC(C)NCCOc1ccc(C)cc1[N+](=O)[O-] (stereo not given) was run?
The Potency was inconclusive: 19.9 µM [inhibitor, partial curve].

How did the Potency turn out when CCN1CCN(CC#CCOc2ccccc2OC)CC1 was run?
The Potency was inconclusive: 14.1 µM [inhibitor, partial curve].

With CC(=O)c1cc2c(cc1N)OCO2 as the compound, how does the Potency read?
The Potency was inconclusive: 2 µM [inhibitor, partial curve, poor fit].

O=C1C2CCCC1C(N1CCCCC1)CC2 (stereo not given) was tested. Which Potency did it give?
The Potency was inconclusive: 31.6 µM [inhibitor, single point].

Cc1cc2oc(=O)cc(CN(C)Cc3ccccc3)c2cc1C(C)C was tested. Which Potency did it give?
The Potency was “inactive”.

COc1ccc([C@@H]2[C@@H]3C(=O)N(C(C)(C)C)C(=O)[C@@H]3[C@]3(Cc4ccc(Cl)cc4)C(=O)N(c4cccc(Br)c4)C(=O)N23)cc1 was tested. Which Potency did it give?
Its Potency is “inactive”.

O=C(N/N=C\c1ccc2c(c1)OCO2)c1cncc(Br)c1 was tested. Which Potency did it give?
Its Potency is “inactive”.

Which Potency does the source give for NC(=O)c1sc2nc(N3CCCCC3)c3c(c2c1N)CCCC3 here?
The Potency was inconclusive: 1.58 µM [inhibitor, full curve].

Which Potency does the source give for Cc1csc(NC(=O)CCS(=O)(=O)c2ccc(Br)cc2)n1 here?
Its Potency is “inactive”.

With N#C/C(=C/c1ccc(O)c(O)c1)c1nc2ccccc2[nH]1 as the compound, how does the Potency read?
The Potency was inconclusive: 8.91 µM [inhibitor, partial curve].

S=C(Nc1ccc(N2CCOCC2)cc1)Nc1ccc2snnc2c1 was tested. Which Potency did it give?
The Potency was inconclusive: 9.98 µM [inhibitor, partial curve].

With COc1cccc(C(=O)O/N=C(\N)c2ccncc2)c1 as the compound, how does the Potency read?
The Potency was “inactive”.

C[C@H]1O[C@@H](OC2CC[C@]3(C=O)[C@H]4CC[C@]5(C)[C@@H](C6=CC(=O)OC6)CC[C@]5(O)[C@@H]4CC[C@]3(O)C2)CC2OC(C)(C)OC21 (stereo not given in full) was tested. Which Potency did it give?
Its Potency is inconclusive: 4.47 µM [activator, single point].
